# ± gives the standard deviation. The list shows a part of the results, in another mix than the full data.
# Test system: MIWI (PIWIL1) piRISC loaded with L1MC piRNA (30 nt)
# Test: pre-steady-state target cleavage rate (min^-1); MIWI and MILI are mouse PIWI proteins and EfPiwi is from a freshwater sponge; tags in brackets are library labels; higher = faster piRNA-guided slicing of the target
# Details: guide: L1MC piRNA 5'p-UAACUAAAUACUAUGCAAGCUGUAGGUCCU; auxiliary factor: 500 nM mouse GTSF1
# Description: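 Cleave-'n-Seq: a library of target RNAs (target site embedded in constant flanks, ACAGCATTCCGCGTTAGTGATATCCG... 5' flank; DNA-blocked outside the site) at 0.1 nM was incubated with 1 nM active mouse MILI or MIWI piRISC (synthetic 5'-monophosphorylated piRNA guide) with or without 500 nM mouse GTSF1 at 33 °C for 1 min to 16 h. Uncleaved targets were sequenced and normalised to non-target controls, and the pooled three trials were fitted to a burst-and-steady-state model to give the pre-steady-state cleavage rate (min^-1; k3 is constrained to at most 1e-4). Sequence is the target site only; target names encode pairing extent (gX:gY) and contiguous / 1-mismatch / 2-mismatch / bulge geometry. Fits with R² ≤ 0 are excluded.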
row,Sequence,pre-steady-state target cleavage rate
1,UCGACCUACAGCUAGCAUAGUAUUUAGUUA,1.28 ± 0.053
2,UCCUCCUACUGCUUGCAUAGUAUUUAGUUA,1.02 ± 0.036
3,UCCUGGAUCAGCUUGCAUAGUUUUUAGAAA,0.0961 ± 0.025
4,UCCUGGAUGUGCUUGCAUAAUAUUUAGUUA,0.21 ± 0.021
5,UCGACCUACAGGUUGGAUAGUAUUUAGUUA,1.16 ± 0.11
6,UCCUCCUACAGCUUGCAUAGUAUUUACGUUA,0.737 ± 0.031
7,UCCUGCUACAGCUUGCAUAGAAUUUUGUUA,0.27 ± 0.039
8,UCCUCCUUCAGCUUGCAUAGUAUAUAGUUA,0.666 ± 0.029
9,UGGACCUUCAGCUUGCAUAGUAAUUAGUUA,0.925 ± 0.056
10,UCCUGGAAGUGCUUGCAUAGUAUUUAGAAA,0.0537 ± 0.016
11,UCGUCCUACAGCUUGCAUAGUAUUUAGAUA,0.43 ± 0.029
12,AGGACCUACAGCUUGCAUAGUAUUUAGUAUA,0.879 ± 0.055
13,UCCACCAAGAGCUUGCAUAGUAUUUAGUUA,0.884 ± 0.095
14,UCCUCCUACAGCUUGCAUAGUAUUUAGUCA,0.739 ± 0.043
15,UCCUGGAAGAGCUUGCAUAGUAUUAAGUUA,0.423 ± 0.038
16,UCCACCUACAGUUGCAUAGUAUUUAGUUA,0.641 ± 0.057
17,UCCACCUACAGCUUGCAUAGUAUUUUGUAA,0.304 ± 0.051
18,UCCUGGAUGAGCUUGCAUAGUAUUUGUUA,0.041 ± 0.011
19,UCGACCUUCAGCAUGCAUAGUAUUUAGUUA,1.24 ± 0.05
20,UCCUGGAUGAGCUUGGAUAGUUUUUAGUUA,0.106 ± 0.015

# Same assay, conditions: guide: L1MC piRNA 5'p-UAACUAAAUACUAUGCAAGCUGUAGGUCCU; auxiliary factor: none (no GTSF1)
row,Sequence,pre-steady-state target cleavage rate
1,UCGACCUACAGCUAGCAUAGUAUUUAGUUA,0.0292 ± 0.0072
2,UCCUCCUACUGCUUGCAUAGUAUUUAGUUA,0.0456 ± 0.0061
3,UCCUGGAUCAGCUUGCAUAGUUUUUAGAAA,0.00604 ± 0.0031
4,UCCUGGAUGUGCUUGCAUAAUAUUUAGUUA,0.0165 ± 0.0044
5,UCGACCUACAGGUUGGAUAGUAUUUAGUUA,0.0308 ± 0.0056
6,UCCUCCUACAGCUUGCAUAGUAUUUACGUUA,0.0415 ± 0.007
7,UCCUGCUACAGCUUGCAUAGAAUUUUGUUA,0.00926 ± 0.0027
8,UCCUCCUUCAGCUUGCAUAGUAUAUAGUUA,0.0172 ± 0.0034
9,UGGACCUUCAGCUUGCAUAGUAAUUAGUUA,0.0263 ± 0.0083
10,UCGUCCUACAGCUUGCAUAGUAUUUAGAUA,0.0226 ± 0.0051
11,AGGACCUACAGCUUGCAUAGUAUUUAGUAUA,0.172 ± 0.054
12,UCCACCAAGAGCUUGCAUAGUAUUUAGUUA,0.0363 ± 0.0078
13,UCCUCCUACAGCUUGCAUAGUAUUUAGUCA,0.0347 ± 0.0077
14,UCCUGGAAGAGCUUGCAUAGUAUUAAGUUA,0.0173 ± 0.0046
15,UCCACCUACAGUUGCAUAGUAUUUAGUUA,0.00435 ± 0.0019
16,UCCACCUACAGCUUGCAUAGUAUUUUGUAA,0.0107 ± 0.0034
17,UCCUGGAUGAGCUUGCAUAGUAUUUGUUA,0.00336 ± 0.0031
18,UCGACCUUCAGCAUGCAUAGUAUUUAGUUA,0.0242 ± 0.0047
19,UCCUGGAUGAGCUUGGAUAGUUUUUAGUUA,0.0227 ± 0.0062

# Source: the supplement of paper PMC10338343
